This note sets out measurements from article PMC3339955.

By UniProt entry, the sequences of proteins in these tests, tags left out. Where a name states a change or a piece, a line headed by the entry shows the natural chain unless it says otherwise. Chains listed by the source or under a name are the forms on record and can include a tag or linker. Residues count along the entry.
UniProt P45973: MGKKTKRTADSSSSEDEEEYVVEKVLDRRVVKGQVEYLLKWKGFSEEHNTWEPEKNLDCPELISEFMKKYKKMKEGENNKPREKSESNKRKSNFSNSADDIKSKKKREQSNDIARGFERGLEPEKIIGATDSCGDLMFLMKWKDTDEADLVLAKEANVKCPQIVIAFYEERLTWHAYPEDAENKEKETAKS
UniProt P83916: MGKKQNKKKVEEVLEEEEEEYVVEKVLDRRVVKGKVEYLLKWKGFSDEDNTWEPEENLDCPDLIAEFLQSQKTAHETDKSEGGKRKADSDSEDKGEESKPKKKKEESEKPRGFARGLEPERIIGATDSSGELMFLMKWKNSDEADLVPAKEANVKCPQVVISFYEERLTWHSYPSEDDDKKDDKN
UniProt Q13185: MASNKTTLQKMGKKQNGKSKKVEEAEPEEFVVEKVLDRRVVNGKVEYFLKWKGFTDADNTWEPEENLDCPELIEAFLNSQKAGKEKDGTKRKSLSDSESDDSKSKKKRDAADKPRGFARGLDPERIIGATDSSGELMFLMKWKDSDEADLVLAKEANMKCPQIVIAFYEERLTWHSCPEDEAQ
UniProt O14901: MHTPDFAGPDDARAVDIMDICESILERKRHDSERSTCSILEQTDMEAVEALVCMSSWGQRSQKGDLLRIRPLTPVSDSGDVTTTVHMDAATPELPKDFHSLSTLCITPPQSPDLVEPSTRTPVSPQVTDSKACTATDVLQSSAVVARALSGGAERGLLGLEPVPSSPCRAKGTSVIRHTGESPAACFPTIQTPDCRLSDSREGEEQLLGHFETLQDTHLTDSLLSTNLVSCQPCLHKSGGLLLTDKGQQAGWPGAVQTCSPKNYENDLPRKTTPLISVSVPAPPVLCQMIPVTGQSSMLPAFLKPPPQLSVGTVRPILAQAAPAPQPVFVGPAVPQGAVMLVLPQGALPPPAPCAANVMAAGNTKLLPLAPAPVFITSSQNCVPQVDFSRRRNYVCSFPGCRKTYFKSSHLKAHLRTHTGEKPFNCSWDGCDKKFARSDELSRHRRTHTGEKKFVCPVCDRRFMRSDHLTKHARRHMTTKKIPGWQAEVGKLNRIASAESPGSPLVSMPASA
Krüppel-like factor 11 (KLF11), 35S-labelled, in vitro translated: residues 18-512 of O14901
His-tagged KLF11ΔHP1: residues 19-503 of O14901
KLF11 (42–495), in vitro translated: residues 59-512 of O14901
KLF11 (162–495), in vitro translated: residues 179-512 of O14901
KLF11 (379–495), in vitro translated: residues 396-512 of O14901
UniProt Q09472: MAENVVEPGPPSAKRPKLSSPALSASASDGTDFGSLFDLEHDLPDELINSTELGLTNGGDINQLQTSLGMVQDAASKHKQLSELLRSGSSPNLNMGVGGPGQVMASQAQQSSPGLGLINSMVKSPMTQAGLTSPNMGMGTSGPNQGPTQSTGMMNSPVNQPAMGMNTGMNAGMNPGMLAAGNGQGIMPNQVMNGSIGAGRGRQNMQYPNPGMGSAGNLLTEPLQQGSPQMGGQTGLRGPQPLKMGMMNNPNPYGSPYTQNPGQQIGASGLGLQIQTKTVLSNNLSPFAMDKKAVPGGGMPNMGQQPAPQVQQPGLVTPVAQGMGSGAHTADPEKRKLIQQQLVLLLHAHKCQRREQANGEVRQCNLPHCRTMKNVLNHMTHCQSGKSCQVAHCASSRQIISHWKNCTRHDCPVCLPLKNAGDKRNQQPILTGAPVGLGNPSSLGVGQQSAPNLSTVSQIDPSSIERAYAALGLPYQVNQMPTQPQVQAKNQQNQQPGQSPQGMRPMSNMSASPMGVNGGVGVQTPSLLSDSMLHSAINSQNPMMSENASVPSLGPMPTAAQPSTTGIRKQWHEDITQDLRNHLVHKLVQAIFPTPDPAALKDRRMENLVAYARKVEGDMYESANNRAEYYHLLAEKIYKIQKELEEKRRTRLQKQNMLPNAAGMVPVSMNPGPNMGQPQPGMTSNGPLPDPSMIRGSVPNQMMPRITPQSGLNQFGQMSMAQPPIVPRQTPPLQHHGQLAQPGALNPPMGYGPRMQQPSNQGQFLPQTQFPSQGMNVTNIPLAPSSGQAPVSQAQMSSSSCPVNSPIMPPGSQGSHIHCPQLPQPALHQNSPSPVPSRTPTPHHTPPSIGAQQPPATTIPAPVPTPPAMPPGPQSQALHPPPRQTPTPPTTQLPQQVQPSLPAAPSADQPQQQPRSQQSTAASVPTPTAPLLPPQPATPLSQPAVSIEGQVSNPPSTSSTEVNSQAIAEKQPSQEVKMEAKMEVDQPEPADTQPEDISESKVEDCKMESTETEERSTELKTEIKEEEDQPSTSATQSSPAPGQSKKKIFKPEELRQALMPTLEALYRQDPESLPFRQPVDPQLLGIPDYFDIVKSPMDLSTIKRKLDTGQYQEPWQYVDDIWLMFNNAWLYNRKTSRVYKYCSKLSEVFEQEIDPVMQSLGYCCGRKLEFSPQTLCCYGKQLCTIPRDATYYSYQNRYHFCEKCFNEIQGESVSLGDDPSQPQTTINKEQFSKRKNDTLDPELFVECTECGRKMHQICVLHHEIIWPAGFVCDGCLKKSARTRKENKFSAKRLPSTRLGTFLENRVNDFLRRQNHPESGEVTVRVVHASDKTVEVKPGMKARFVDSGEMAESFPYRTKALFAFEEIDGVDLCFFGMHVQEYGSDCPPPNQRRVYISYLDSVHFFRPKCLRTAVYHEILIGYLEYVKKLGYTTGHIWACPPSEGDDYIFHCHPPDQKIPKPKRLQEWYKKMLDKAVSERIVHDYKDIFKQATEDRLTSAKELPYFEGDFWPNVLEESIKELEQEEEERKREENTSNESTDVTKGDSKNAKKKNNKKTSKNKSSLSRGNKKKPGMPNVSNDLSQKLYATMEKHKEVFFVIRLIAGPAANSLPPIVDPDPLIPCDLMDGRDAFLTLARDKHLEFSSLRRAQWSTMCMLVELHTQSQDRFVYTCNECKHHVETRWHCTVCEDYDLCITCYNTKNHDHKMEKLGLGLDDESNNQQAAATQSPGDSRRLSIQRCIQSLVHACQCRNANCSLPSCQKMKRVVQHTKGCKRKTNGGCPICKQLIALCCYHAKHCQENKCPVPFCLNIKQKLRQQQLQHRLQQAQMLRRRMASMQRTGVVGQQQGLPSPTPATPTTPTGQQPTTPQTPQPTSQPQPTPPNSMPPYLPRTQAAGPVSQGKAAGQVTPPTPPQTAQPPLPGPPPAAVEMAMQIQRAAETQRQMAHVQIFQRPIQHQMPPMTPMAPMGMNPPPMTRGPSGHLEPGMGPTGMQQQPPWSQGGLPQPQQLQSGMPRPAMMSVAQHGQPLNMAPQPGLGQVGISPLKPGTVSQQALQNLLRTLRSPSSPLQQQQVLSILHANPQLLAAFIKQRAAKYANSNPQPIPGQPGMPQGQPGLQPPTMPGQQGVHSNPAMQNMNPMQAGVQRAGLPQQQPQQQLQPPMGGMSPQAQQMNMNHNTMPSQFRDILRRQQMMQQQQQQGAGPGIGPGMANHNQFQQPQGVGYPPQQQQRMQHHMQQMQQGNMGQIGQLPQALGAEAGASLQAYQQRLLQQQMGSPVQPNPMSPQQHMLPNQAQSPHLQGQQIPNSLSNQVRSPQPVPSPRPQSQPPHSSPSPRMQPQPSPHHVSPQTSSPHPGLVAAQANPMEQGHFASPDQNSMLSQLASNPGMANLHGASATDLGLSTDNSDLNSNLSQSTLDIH

Results are given in words; binding and its absence hold for the method and conditions named. In cells and extracts the contact can be indirect. Some entries that bind do so weakly or less than the wild type.

The target in test [1] is EYFP(2)-HP1α (C-terminal EYFP portion fused to HP1α) (human) (UniProt P45973). The experiment in a line: split reporter; BiFC: cells co-transfected with EYFP(1) and EYFP(2) expression vectors, confocal microscopy after 48 h.
For test [2], the target named is Endogenous HP1α (human (endogenous in BxPC3, Panc1, PL45)) (UniProt P45973). The experiment in a line: co-IP; endogenous HP1α immunoprecipitation from nuclear lysates of Panc1 and PL45 cells; data not shown.
Test [3] has the same target. In words: co-IP; immunoprecipitation with an HP1α-specific antibody from BxPC3 nuclear extracts, Western blot with a KLF11-specific antibody; mouse IgG as negative control; both proteins endogenous. Background: In western blotting, separated proteins are transferred to a membrane and probed.
Test [4] concerns the target HP1α in cells transfected with His-tagged KLF11 (UniProt P45973). The experiment in a line: co-IP; immunoprecipitation with an HP1α-specific antibody from cells transfected with His-tagged KLF11 WT or KLF11ΔHP1; empty vector as negative control.
For test [5], the target named is GST-HP1α (heterochromatin protein 1 alpha) (human) (UniProt P45973). The experiment in a line: pull-down; GST pulldown: purified GST-HP1 fusion proteins as bait, 35S-labelled in vitro translated KLF11 proteins as prey; phosphorimage read-out; GST alone as negative control; only the target purified.
In test [6] the target is GST-HP1β (heterochromatin protein 1 beta) (human) (UniProt P83916). Described as above.
For test [7], the target named is GST-HP1γ (heterochromatin protein 1 gamma) (human) (UniProt Q13185). The test is described as above.
The target in test [8] is His-tagged KLF11ΔHP1 (human) (UniProt O14901). The experiment in a line: co-IP; immunoprecipitation of the His-tagged KLF11ΔHP1 deletion mutant, blots for Sin3a and p300.

As to “EYFP(1)-KLF11 (N-terminal EYFP portion fused to KLF11) (from UniProt O14901-2 1-495)”, the binding result in test [1] is on record as “binds”.

With “Endogenous KLF11 (from UniProt O14901 1-512)”, the binding result in test [2] and in test [3] was “binds” each time.

Turning to “His-tagged KLF11 wild type (from UniProt O14901-2 1-495)”, the binding result in test [4] was “binds”.

“His-tagged KLF11ΔHP1 (from UniProt O14901-2 2-486) (domain or fragment)”: the binding result in test [4] is reported as “no binding”.

As to “KLF11 (42–495), in vitro translated (from UniProt O14901-2 42-495) (domain or fragment)”, the binding result in test [5] is recorded as “binds”.

For the substance “KLF11 (162–495), in vitro translated (from UniProt O14901-2 162-495) (domain or fragment)”, in test [5], the binding entry was “binds”.

For “KLF11 (379–495), in vitro translated (from UniProt O14901-2 379-495) (domain or fragment)”, the binding entry in test [5] is reported as “binds”.

Turning to “KLF11 (amino acids 2–486) mutant, KLF11ΔHP1, in vitro translated (from UniProt O14901-2 2-486) (domain or fragment)”, the binding entry in test [5] was “no binding”.

On to “Krüppel-like factor 11 (KLF11), 35S-labelled, in vitro translated (from UniProt O14901-2 1-495)”, for which the binding result in test [5], in test [6] and in test [7] was “binds” throughout.

Consider p300 (from UniProt Q09472 1-2414), for which the binding entry in test [8] was “binds”.
